Drawing on PubChem BioAssay AID1745853 (National Center for Advancing Translational Sciences (NCATS), 2022), this text covers activity change, negative = inhibition for 30 compounds.

Test in all cases: Primary Screen for Target Class Profiling of Small Molecule Inhibitors of Methyltransferases
Assay [1] addresses Glycine N-methyltransferase (Homo sapiens) (UniProt Q14749). To be noted: purified enzyme, MTase-Glo SAH luminescence; measured here: GNMT inhibition; at 40 µM; stronger effect = lower value. The essentials: (§1)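 Each enzyme was assayed with SAM and its substrate. SAH formation detected by MTase-Glo luminescence; single-point 40 uM screen[…].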
Assay [2] addresses Guanidinoacetate N-methyltransferase (Homo sapiens) (UniProt Q14353). To be noted: purified enzyme, MTase-Glo SAH luminescence; measured here: GAMT inhibition; at 40 µM; stronger effect = lower value. The essentials: as §1
Assay [3] concerns the target Histamine N-methyltransferase (Homo sapiens) (UniProt P50135). The following applies: purified enzyme, MTase-Glo SAH luminescence; measured here: HNMT inhibition; at 40 µM; stronger effect = lower value. The procedure, abridged: as §1
Assay [4] concerns the target Nicotinamide N-methyltransferase (Homo sapiens) (UniProt P40261). To be noted: purified enzyme, MTase-Glo SAH luminescence; measured here: NNMT inhibition; at 40 µM; stronger effect = lower value. The procedure, abridged:
as §1

Assay [5] has as its target Phenylethanolamine N-methyltransferase (Homo sapiens) (UniProt P11086). To be noted: purified enzyme, MTase-Glo SAH luminescence; measured here: PNMT inhibition; at 40 µM; stronger effect = lower value. The procedure, abridged: as §1

The list shows a part of the results. These are further read-outs of the screen, such as a control signal, another cell line or another target. No call is given for them.
On the % scale 0 is the no-effect control and ±100 the full control effect.

Turning to `C[C@@H](O[C@H]1OCCN(Cc2n[nH]nc2CN(C)C)[C@H]1c1ccc(F)cc1)c1cc(C(F)(F)F)cc(C(F)(F)F)c1`, the activity change, negative = inhibition in assay [1] was -3.33%; in assay [2] it was 19.9%; in assay [3], 11.6%; in assay [4] it was -3.76%; in assay [5], 7.65%.
In the case of `Cc1cc2[nH]c(=O)[nH]c2cc1S(=O)(=O)N1CCN(c2ccccc2)CC1`, the activity change, negative = inhibition was 5.23% in assay [1]; 1.54% in assay [2]; 8.44% in assay [3]; -9.94% in assay [4]; -0.031% in assay [5].
Taken in the same sequence, the figures for `CCC(C(=O)NCc1ccccc1)n1ccc2cc(S(=O)(=O)N3CCCCC3)ccc21` (stereo unspecified) were 7.63%, 1.75%, 9.11%, 10.3% and 6.96%.
Taken in the same sequence, the figures for `O=c1c2ccccc2n2c(=O)n(Cc3ccccc3F)nc2n1CCc1ccccc1` were -5.03%, -6.34%, 10.1%, -5.94% and -6.94%.
For `CO[C@@H](C(=O)N1Cc2[nH]nc(NC(=O)c3ccc(N4CCN(C)CC4)cc3)c2C1)c1ccccc1`, the activity change, negative = inhibition in assay [2] was 2.32%; in assay [4], -12.3%; in assay [5], -3.68%.
`CCC1Oc2ccc(NC(=O)Cc3ccc(OC)cc3)cc2CN(Cc2ccc3c(c2)OCO3)C1=O` (stereo unspecified): the activity change, negative = inhibition is -3.9% in assay [1]; -0.534% in assay [2]; -8.33% in assay [3]; -8.04% in assay [4]; -5.97% in assay [5].
Turning to `COCC(=O)N[C@@H]1CCC[C@@H](C(=O)NC2CC2)CC(=O)N(C)C1`, the activity change, negative = inhibition is -9.89% in assay [1]; -11.3% in assay [2]; -17.4% in assay [3]; -18% in assay [4]; -1.79% in assay [5].
On the same counts, the results for `CN1CCN(C2=Nc3cc(Cl)ccc3Nc3ccccc32)CC1` are 1.02%, 12.4%, 3.74%, -8.91% and 7.75%.
Regarding `COc1ccc([C@@H](NC(=O)c2coc3ccccc23)C2CC(O)C2)cn1` (stereo partly specified), the activity change, negative = inhibition in assay [1] was 0.912%; in assay [2], 1.15%; in assay [3], 2.23%; in assay [4], -5.72%; in assay [5], -0.902%.
On the same counts, the results for `COc1ccc(C)cc1NC(=O)CCC[C@@H]1[C@H]2CCCN3CCC[C@@H](CN1Cc1cccnc1)[C@@H]23` are -3.65%, 1.79%, -13.1%, 0.599% and 2.98%.
`CCCCCc1ccc(/C=C/[C@H](O)[C@@H](CO)NC)cc1`: the activity change, negative = inhibition in assay [2] was 4.58%; in assay [4] it was -16.3%; in assay [5], -7.84%.
In the case of `Cc1c(Cc2ccc3ccccc3n2)c2cc(F)ccc2n1CC(=O)O`, the activity change, negative = inhibition in assay [1] is -2.65%; in assay [2], 2.96%; in assay [3] it was 8.98%; in assay [4], -16.6%; in assay [5] it was 0.53%.
On the same counts, the results for `CC1CCN(S(=O)(=O)c2ccc3c(c2)oc(=O)n3CC(=O)NCc2ccc(Cl)cc2)CC1` are -8.1%, 6.72%, -6.64%, -7.71% and -8.09%.
Consider `CCOC(=O)c1cccc(NS(=O)(=O)c2ccc3c(c2)NC(=O)C(C)C(=O)N3)c1` (stereo unspecified), for which the activity change, negative = inhibition in assay [1] is 3.08%; in assay [2], 0%; in assay [3], 2.1%; in assay [4] it was 9.53%; in assay [5], -0.028%.
Taken in the same sequence, the figures for `O=S(=O)(NCc1ccc(F)cc1)c1ccccc1-c1nc(-c2ccc(F)cc2)no1` were 15%, 3.7%, 13.5%, 6.59% and 7.66%.
Regarding `CC(=O)OC1C(=O)C2C3OCC4=C3[C@@](C)(CC[C@@H]4O)CC[C@]2(C)[C@H]1C(C)C` (stereo partly specified), the activity change, negative = inhibition in assay [1] is -1.85%; in assay [2], -3.25%; in assay [3] it was 8.9%; in assay [4], -18.9%; in assay [5], -12.9%.
Taken in the same sequence, the figures for `Cc1ccc(NC(=O)CSc2nnc3n(C)c(=O)c4ccc(C(=O)NC5CCCC5)cc4n23)cc1F` were 0.67%, 0%, 8.54%, 1.7% and 8.76%.
Taken in the same sequence, the figures for `COc1ccc(/C=C/C(=O)O[C@@H]2[C@@H](O)[C@@H](O)[C@H](O[C@H]3[C@@H]4C=CO[C@@H](O[C@@H]5O[C@H](CO)[C@@H](O)[C@H](O)[C@H]5O)[C@@H]4[C@@]4(CO)O[C@@H]34)O[C@H]2C)cc1` were 0%, 2.66%, 4.72%, -7.39% and 6.22%.
On the same counts, the results for `COc1ccc(N2C(=O)c3cc4oc(C)cc4n3CC2(C)C(=O)NC2CCCCCC2)cc1OC` (stereo unspecified) are -4.81%, 2.88%, -0.501%, 2.04% and -1.14%.
On to `Cc1ccc(NC(=O)[C@@H]2OCC(=O)N(C)[C@H]2c2ccccc2)cc1`, for which the activity change, negative = inhibition in assay [1] was -0.488%; in assay [2], -0.638%; in assay [3], 1.66%; in assay [4], 0.409%; in assay [5], 1.74%.
On the same counts, the results for `O=C(O)c1ccccc1Nc1ccccc1` are -3.4%, 6.87%, 6.75%, -9.1% and -5.72%.
Regarding `CCNC(=O)N1CCCC(Cc2noc(-c3ccccc3)n2)C1` (stereo unspecified), the activity change, negative = inhibition was -7% in assay [1]; -6.02% in assay [2]; -4.92% in assay [3]; -8.35% in assay [4]; -3.25% in assay [5].
As to `CN(CCO)C[C@@H]1CN(C(=O)CCc2nc3ccc(F)cc3[nH]2)C[C@@H]1CO`, the activity change, negative = inhibition was -6.28% in assay [1]; -8.63% in assay [2]; -6.82% in assay [3]; -15.2% in assay [4]; -11.7% in assay [5].
With `COc1cccc(CNC(=O)[C@@H]2C[C@@H](O)CN2C2CCN(C(=O)Cc3c[nH]c4ccccc34)CC2)c1`, the activity change, negative = inhibition in assay [1] is -8.77%; in assay [2], -7.88%; in assay [3] it was -2.63%; in assay [4] it was -11.7%; in assay [5], -5.27%.
Taken in the same sequence, the figures for `Cc1cc(C(=O)Nc2cc(Nc3ccc4c(/C=C/c5ccccn5)n[nH]c4c3)ccc2F)n(C)n1` were -20.4%, -3.39%, -4.72%, -21.1% and -12.7%.
Turning to `Cc1noc(-c2cccs2)c1C(=O)NCCC(c1ccccc1)c1ccccc1`, the activity change, negative = inhibition in assay [1] was -1.95%; in assay [2], 0.437%; in assay [3] it was 1%; in assay [4], -5.24%; in assay [5] it was -1.53%.
Taken in the same sequence, the figures for `Cc1ccc(N2C(=O)c3ccc(-c4ccco4)n3CC2(C)C(=O)NC2CCCC2)c(C)c1` (stereo unspecified) were -2.65%, 3.32%, -1.88%, -3.24% and -5.32%.
For the compound `COCC1CN(C(C)=O)CC12CCN(C(=O)CC1CCCCC1)CC2` (stereo unspecified), the activity change, negative = inhibition in assay [1] is -3.9%; in assay [2] it was -6.87%; in assay [3], -1.55%; in assay [4], -7.03%; in assay [5] it was 1.07%.
Taken in the same sequence, the figures for `COc1c(C)c(OCC=C(C)C)cc2c1CNC2=O` were 1.17%, 0.988%, 6.04%, -22.4% and -5.3%.
In the case of `O=C(c1ccccc1-c1ncc[nH]1)N1CCOC(Cc2cccc(F)c2)C1` (stereo unspecified), the activity change, negative = inhibition in assay [1] is 0.084%; in assay [2] it was 0.777%; in assay [3], 2.27%; in assay [4], -2.72%; in assay [5] it was 8.64%.
